Data as given in US20250136702A1, “HUMAN LIFR ANTIGEN BINDING PROTEIN, PREPARATION METHOD THEREFOR, AND APPLICATION THEREOF” (NONA BIOSCIENCES (SUZHOU) CO., LTD., priority 2020, published 2025).

T1: human LIFR-ECD (Homo sapiens, UniProt P42702)
T1 construct: The extracellular region (1-833 a.a.) of recombinant human LIFR protein; His tag; made in house; host or cells: HEK293 (transient transfection, purified from culture supernatant)
T1 sequence (P42702 45-833): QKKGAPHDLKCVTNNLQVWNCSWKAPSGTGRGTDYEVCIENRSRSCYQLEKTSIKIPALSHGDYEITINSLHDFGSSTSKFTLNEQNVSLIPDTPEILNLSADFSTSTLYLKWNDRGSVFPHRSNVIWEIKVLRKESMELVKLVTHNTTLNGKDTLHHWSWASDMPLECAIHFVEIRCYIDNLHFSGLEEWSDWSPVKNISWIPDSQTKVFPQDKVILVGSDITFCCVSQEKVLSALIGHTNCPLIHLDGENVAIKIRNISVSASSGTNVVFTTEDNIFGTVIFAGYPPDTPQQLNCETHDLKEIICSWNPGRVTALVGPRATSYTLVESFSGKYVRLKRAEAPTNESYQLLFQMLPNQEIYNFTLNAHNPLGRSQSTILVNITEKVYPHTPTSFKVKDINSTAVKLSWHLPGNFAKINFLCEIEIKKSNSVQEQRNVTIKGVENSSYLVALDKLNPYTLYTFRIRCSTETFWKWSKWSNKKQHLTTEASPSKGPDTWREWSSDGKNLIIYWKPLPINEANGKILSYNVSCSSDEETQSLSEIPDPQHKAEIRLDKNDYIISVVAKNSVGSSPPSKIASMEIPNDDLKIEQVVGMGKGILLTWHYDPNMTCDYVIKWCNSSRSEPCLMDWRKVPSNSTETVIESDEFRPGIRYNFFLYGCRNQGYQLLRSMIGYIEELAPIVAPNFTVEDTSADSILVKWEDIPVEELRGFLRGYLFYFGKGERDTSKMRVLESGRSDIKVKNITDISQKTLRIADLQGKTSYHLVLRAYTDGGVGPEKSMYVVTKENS

T2: human LIFR/gp130 heterodimer expressed on the surface of 293T cells (Homo sapiens, UniProt P42702)
T2 construct: expressed in transfected cells; host or cells: HEK293T, lentiviral transduction (lenti-LIFR/gp130), puromycin selection, monoclonal line
T2 sequence (P42702 45-1097): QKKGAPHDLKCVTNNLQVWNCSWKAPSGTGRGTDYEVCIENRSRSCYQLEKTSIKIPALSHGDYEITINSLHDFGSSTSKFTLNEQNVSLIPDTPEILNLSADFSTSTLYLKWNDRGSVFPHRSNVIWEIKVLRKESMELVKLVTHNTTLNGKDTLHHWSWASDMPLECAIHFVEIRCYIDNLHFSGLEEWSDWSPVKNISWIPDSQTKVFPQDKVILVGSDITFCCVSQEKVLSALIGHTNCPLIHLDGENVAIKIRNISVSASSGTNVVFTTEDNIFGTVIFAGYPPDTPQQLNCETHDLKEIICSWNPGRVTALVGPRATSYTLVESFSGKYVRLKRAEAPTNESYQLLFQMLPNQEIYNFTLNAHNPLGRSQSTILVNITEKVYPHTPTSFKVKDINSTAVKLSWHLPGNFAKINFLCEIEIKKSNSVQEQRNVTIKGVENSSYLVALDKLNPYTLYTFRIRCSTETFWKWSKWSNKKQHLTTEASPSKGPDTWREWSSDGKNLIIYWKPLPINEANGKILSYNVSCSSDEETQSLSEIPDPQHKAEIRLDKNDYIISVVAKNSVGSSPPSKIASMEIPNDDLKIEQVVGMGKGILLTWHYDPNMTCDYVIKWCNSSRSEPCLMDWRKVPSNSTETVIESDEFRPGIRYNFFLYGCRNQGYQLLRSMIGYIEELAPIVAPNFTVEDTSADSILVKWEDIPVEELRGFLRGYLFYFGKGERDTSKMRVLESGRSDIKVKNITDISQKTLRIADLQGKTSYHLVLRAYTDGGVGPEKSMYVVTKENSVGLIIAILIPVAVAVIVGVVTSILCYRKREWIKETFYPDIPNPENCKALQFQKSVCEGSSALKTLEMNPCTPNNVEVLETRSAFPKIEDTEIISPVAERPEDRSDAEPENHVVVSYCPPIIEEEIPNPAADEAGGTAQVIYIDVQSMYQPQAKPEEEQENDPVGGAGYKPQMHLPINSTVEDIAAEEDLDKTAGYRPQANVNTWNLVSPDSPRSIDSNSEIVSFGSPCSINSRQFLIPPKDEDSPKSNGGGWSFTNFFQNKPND


Assays:
human LIFR-ECD = target: T1, human LIFR-ECD; test: ELISA binding of antibodies to human LIFR-ECD at the protein level
Experimental: (§1) The binding ability of the 15 antibodies prepared in examples 1-4 of the present invention to the LIFR-ECD protein was detected based on the ELISA assay method. The binding affinity of different antibodies was determined by comparing their dose response binding curves to LIFR-ECD protein. The specific experimental process is as follows: First, human LIFR-ECD, monkey LIFR-ECD and mouse LIFR-ECD proteins are diluted to a concentration of 1 μg/mL, added to a 96-well plate (100 μL per well) and placed at 4° C. overnight. The 96-well plates were washed three times with PBST solution and then placed at 37° C. for 1 h with the addition of 2% BSA in PBS solution. Antibody seris dilution is prepared and (100 nM, 10-fold-dilution), added to a 96-well plate and incubate at 37° C. for 1 h. After washing three times with PBST solution, add anti-human IgG Fc-HRP secondary antibody (for 5000× dilution) and incubate at 37° C. for 30-60 min. After washing three times with PBST solution, add TMB color development solution for 5-15 minutes, and then add termination solution to ternimate the color development.

[1] = target: T2, human LIFR/gp130 heterodimer expressed on the surface of 293T cells; test: Flow cytometry blocking of huLIF binding to HEK293T-huLIFR/gp130 cells; details: compared with the negative control hIgG1
Experimental: The ability of the 15 antibodies prepared in examples 1-4 of the present invention to block the binding of the huLIF protein to the human LIFR/gp130 heterodimer expressed on the surface of 293T cells was tested based on flow cytometry. The blocking ability was determined by comparing the dose response curves of different antibodies blocking the binding of huLIF protein to HEK293T-huLIFR/gp130 cells.
The specific experimental process is: (1) First determine the EC80 concentration of huLIF protein binding to HEK293T-huLIFR/gp130 cells. Label the huLIF protein to obtain the huLIF-biotin protein; (2) make serise diluton of test antibodies and incubate with HEK293T-huLIFR/gp130 cells and huLIF protein (final concentration is the value of EC80) at 4° C. After washing three times with PBS, incubate with APC-labeled Strepavidin secondary antibody for 30 minutes at 4° C. After washing three times with PBS, resuspend the cells with 100 μL FACS buffer; (3) Use flow cytometry to measure the four-channel median fluorescenceDegree value. Use the logarithm of the antibody concentration to base 10 as the abscissa, and plot the four-channel median fluorescence value on the ordinate to compare the IC50 and the peak value of the curve.

monkey LIFR-ECD = test: ELISA binding of antibodies to monkey LIFR-ECD at the protein level
Experimental: as §1

Row | Molecule | binding ability to human LIFR-ECD protein (in words) (human LIFR-ECD) | block huLIF binding to HEK293T-huLIFR/gp130 (in words) [1] | binding ability to monkey LIFR-ECD protein (in words) (monkey LIFR-ECD)
1 | PR301177: fully human anti-LIFR IgG1 antibody; VH SEQ ID NO: 53, VL SEQ ID NO: 66, HC SEQ ID NO: 77, LC SEQ ID NO: 90 (antibody) heavy: QVQLVESGGGVVQPGRSLRLSCVASGFTFSSYGMNWVRQAPGKGLDWVTVIWFDGSNKYYADSVKGRFTISRDNSKNTLYLQMNSLRAEDTAMYYCARGERTLDLWGQGTLVTVSS[here human IgG1 constant region without letters] light: DIQMTQSPSTLSASVGDRVTITCRASQSISSWLAWYQQKPGKAPKLLIYKASSLESGVPSRFSGSGSGTEFSFTISSLQPDDFATYYCQQYKSFSPGGLTFGGGTKVEIKRTVAAPSVFIFPPSDEQLKSGTASVVCLLNNFYPREAKVQWKVDNALQSGNSQESVTEQDSKDSTYSLSSTLTLSKADYEKHKVYACEVTHQGLSSPVTKSFNRGEC | have binding ability | significantly block | have binding ability
2 | PR301195: fully human anti-LIFR IgG1 antibody; VH SEQ ID NO: 54, VL SEQ ID NO: 67, HC SEQ ID NO: 78, LC SEQ ID NO: 91 (antibody) heavy: QVQLVESGGGVVQPGRSLRLSCAASGFTFSSYGMNWVRQAPGKGLEWVAVIWFDGSIKYYADSVKGRFTISRDNSKNTLYLQMNSLRAEDTAIYYCARGQLVQDFWGRGTLVTVSS[here human IgG1 constant region without letters] light: DIQMTQSPSTLSASVGDRVTITCRASQSISSWLAWYQQKPGKAPNLLMYKASNLESGVPSRFSGSGSGTEFTLTITSLQPDDFASYYCQQYKSNPLTFGGGTKVEIKRTVAAPSVFIFPPSDEQLKSGTASVVCLLNNFYPREAKVQWKVDNALQSGNSQESVTEQDSKDSTYSLSSTLTLSKADYEKHKVYACEVTHQGLSSPVTKSFNRGEC | have binding ability | significantly block | have binding ability
3 | PR301196: fully human anti-LIFR IgG1 antibody; VH SEQ ID NO: 54, VL SEQ ID NO: 68, HC SEQ ID NO: 78, LC SEQ ID NO: 92 (antibody) heavy: QVQLVESGGGVVQPGRSLRLSCAASGFTFSSYGMNWVRQAPGKGLEWVAVIWFDGSIKYYADSVKGRFTISRDNSKNTLYLQMNSLRAEDTAIYYCARGQLVQDFWGRGTLVTVSS[here human IgG1 constant region without letters] light: DIQMTQSPSTLSASVGDRVTITCRASQSISSWLAWYQQKPGKAPNLLMYKASNLENGVSSRFSGSGSGTEFTLTITSLQPDDFATYYCQQYKSNPLTFGGGTKVEIKRTVAAPSVFIFPPSDEQLKSGTASVVCLLNNFYPREAKVQWKVDNALQSGNSQESVTEQDSKDSTYSLSSTLTLSKADYEKHKVYACEVTHQGLSSPVTKSFNRGEC | have binding ability | significantly block | have binding ability

Next, values leading:

Row | binding ability to human LIFR-ECD protein (in words) (human LIFR-ECD) | block huLIF binding to HEK293T-huLIFR/gp130 (in words) [1] | binding ability to monkey LIFR-ECD protein (in words) (monkey LIFR-ECD) | Molecule
4 | have binding ability | significantly block | have binding ability | PR301215: fully human anti-LIFR IgG1 antibody; VH SEQ ID NO: 56, VL SEQ ID NO: 67, HC SEQ ID NO: 80, LC SEQ ID NO: 91 (antibody) heavy: QVQLVESGGGVVQPGRSLRLSCAASGFTFSSYGMHWVRQAPGKGLEWVAVIWFDGSIKYYADSVKGRFTISRDNSKNTLYLQMNSLRAEDTAIYYCARGQLVQDFWGRGTLVTVSS[here human IgG1 constant region without letters] light: DIQMTQSPSTLSASVGDRVTITCRASQSISSWLAWYQQKPGKAPNLLMYKASNLESGVPSRFSGSGSGTEFTLTITSLQPDDFASYYCQQYKSNPLTFGGGTKVEIKRTVAAPSVFIFPPSDEQLKSGTASVVCLLNNFYPREAKVQWKVDNALQSGNSQESVTEQDSKDSTYSLSSTLTLSKADYEKHKVYACEVTHQGLSSPVTKSFNRGEC
5 | have binding ability | significantly block | have binding ability | PR301218: fully human anti-LIFR IgG1 antibody; VH SEQ ID NO: 57, VL SEQ ID NO: 67, HC SEQ ID NO: 81, LC SEQ ID NO: 91 (antibody) heavy: QVQLVESGGGVVQPGRSLRLSCAASGFTFSSYGMHWVRQAPGKGLEWVAVIWFDGSVKYYADSVKGRFTISRDNSKNTLYLQMNSLRAEDTAIYYCARGQLVQDFWGRGTLVTVSS[here human IgG1 constant region without letters] light: DIQMTQSPSTLSASVGDRVTITCRASQSISSWLAWYQQKPGKAPNLLMYKASNLESGVPSRFSGSGSGTEFTLTITSLQPDDFASYYCQQYKSNPLTFGGGTKVEIKRTVAAPSVFIFPPSDEQLKSGTASVVCLLNNFYPREAKVQWKVDNALQSGNSQESVTEQDSKDSTYSLSSTLTLSKADYEKHKVYACEVTHQGLSSPVTKSFNRGEC
